# According to the supplement of paper PMC8728848:
# Some of the results follow.
# B1: Epa22 (Candida glabrata) (protein)
# chain: MGSSHHHHHHSSGLVPRGSHMKRALSSQNPFGYPIGCSPQSTNVIPGLTMELYSYPIVSGTPPNCYDASYVDPEYPRTGYLKRKMIGKSTGVTGSLNYKFSVEKACMVKYGNLPAGYNYNEPLTVSNFTMLLYGYFKPQTSGIHTFFVNADDLLYINFGAGNAFDCCKREDSKFKLGEYVAYDIWHVDSSKNKVSLNLEKDVYYPIRMFFNNIGKDSSLDLSFSVNGAVEHITDFSGYLYSVPDQPDACPAPIGYDTTCK
# Key:
# Test in all cases: glycan array binding signal (z-score within array); higher = stronger binding
# Conditions in all cases: glycan notation: IUPAC condensed, linker removed
# Glc(b1-6)Glc = target: Glc(b1-6)Glc
# Summary of the method: (§1)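 Columns mapping to the same glycan were averaged after glycan names were converted to IUPAC-condensed notation. The data come from 3228 arrays in the Consortium for Functional Glycomics database, limited to those with an available protein sequence. Binding is reported as a within-array Z-score averaged across arrays of one protein sequence and across linkers.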
# GlcA(b1-3)Gal = target: GlcA(b1-3)Gal
# Summary of the method: as §1
# GlcA(b1-3)GlcNAc = target: GlcA(b1-3)GlcNAc
# Summary of the method: as §1
# GlcA(b1-6)Gal = target: GlcA(b1-6)Gal
# Summary of the method: as §1
# [1] = target: GlcA3S(b1-3)Gal(b1-4)GlcNAc(b1-2)Man
# Summary of the method: as §1
# [2] = target: GlcA3S(b1-3)Gal(b1-4)GlcNAc(b1-3)Gal(b1-4)Glc
# Summary of the method: as §1
# [3] = target: GlcNAc(a1-3)Gal(b1-4)GlcNAc
# Summary of the method: as §1
# [4] = target: GlcNAc(a1-4)Gal(b1-3)GlcNAc
# Summary of the method: as §1
# [5] = target: GlcNAc(a1-4)Gal(b1-4)GalNAc
# Summary of the method: as §1
# [6] = target: GlcNAc(a1-4)Gal(b1-4)GlcNAc
# Summary of the method: as §1
# [7] = target: GlcNAc(a1-4)Gal(b1-4)GlcNAc(b1-3)Gal(b1-4)Glc
# Summary of the method: as §1
# [8] = target: GlcNAc(a1-4)Gal(b1-4)GlcNAc(b1-3)Gal(b1-4)GlcNAc
# Summary of the method: as §1
# [9] = target: GlcNAc(a1-4)Gal(b1-4)GlcNAc(b1-3)Gal(b1-4)GlcNAc(b1-3)Gal(b1-4)GlcNAc
# Summary of the method: as §1
# [10] = target: GlcNAc(a1-4)Gal(b1-4)GlcNAc(b1-3)Gal(b1-4)[Fuc(a1-3)]GlcNAc(b1-3)Gal(b1-4)[Fuc(a1-3)]GlcNAc
# Summary of the method: as §1
# [11] = target: GlcNAc(a1-6)Gal(b1-4)GlcNAc
# Summary of the method: as §1
# [12] = target: GlcNAc(b1-2)Gal(b1-3)GalNAc
# Summary of the method: as §1
# [13] = target: GlcNAc(b1-2)Man(a1-3)[GlcNAc(b1-2)Man(a1-6)]Man(b1-4)GlcNAc(b1-4)GlcNAc
# Summary of the method: as §1
# [14] = target: GlcNAc(b1-2)Man(a1-3)[GlcNAc(b1-2)Man(a1-6)]Man(b1-4)GlcNAc(b1-4)[Fuc(a1-6)]GlcNAc
# Summary of the method: as §1
# [15] = target: GlcNAc(b1-2)Man(a1-3)[GlcNAc(b1-4)][GlcNAc(b1-2)Man(a1-6)]Man(b1-4)GlcNAc(b1-4)GlcNAc
# Summary of the method: as §1
# [16] = target: GlcNAc(b1-2)Man(a1-3)[GlcNAc(b1-4)][GlcNAc(b1-2)Man(a1-6)]Man(b1-4)GlcNAc(b1-4)[Fuc(a1-6)]GlcNAc
# Summary of the method: as §1
# [17] = target: GlcNAc(b1-2)[GlcNAc(b1-4)]Man(a1-3)[GlcNAc(b1-2)Man(a1-6)]Man(b1-4)GlcNAc(b1-4)GlcNAc
# Summary of the method: as §1
# [18] = target: GlcNAc(b1-2)[GlcNAc(b1-4)]Man(a1-3)[GlcNAc(b1-4)][GlcNAc(b1-2)Man(a1-6)]Man(b1-4)GlcNAc(b1-4)GlcNAc
# Summary of the method: as §1
# [19] = target: GlcNAc(b1-2)[GlcNAc(b1-4)]Man(a1-3)[GlcNAc(b1-4)][GlcNAc(b1-2)[GlcNAc(b1-6)]Man(a1-6)]Man(b1-4)GlcNAc(b1-4)GlcNAc
# Summary of the method: as §1
# [20] = target: GlcNAc(b1-2)[GlcNAc(b1-4)]Man(a1-3)[GlcNAc(b1-4)][GlcNAc(b1-2)[GlcNAc(b1-6)]Man(a1-6)]Man(b1-4)GlcNAc(b1-4)[Fuc(a1-6)]GlcNAc
# Summary of the method: as §1
# [21] = target: GlcNAc(b1-2)[GlcNAc(b1-6)]Man(a1-6)[GlcNAc(b1-2)Man(a1-3)]Man(b1-4)GlcNAc(b1-4)GlcNAc
# Summary of the method: as §1
# [22] = target: GlcNAc(b1-2)[GlcNAc(b1-6)]Man(a1-6)[GlcNAc(b1-2)Man(a1-3)]Man(b1-4)GlcNAc(b1-4)[Fuc(a1-6)]GlcNAc
# Summary of the method: as §1
# [23] = target: GlcNAc(b1-2)[GlcNAc(b1-6)]Man(a1-6)[GlcNAc(b1-4)][GlcNAc(b1-2)Man(a1-3)]Man(b1-4)GlcNAc(b1-4)GlcNAc
# Summary of the method: as §1
# GlcNAc(b1-3)Fuc = target: GlcNAc(b1-3)Fuc
# Summary of the method: as §1
# GlcNAc(b1-3)Gal = target: GlcNAc(b1-3)Gal
# Summary of the method: as §1
# [24] = target: GlcNAc(b1-3)Gal(b1-3)GalNAc
# Summary of the method: as §1
# GlcNAc(b1-3)Gal(b1-4)Glc = target: GlcNAc(b1-3)Gal(b1-4)Glc
# Summary of the method: as §1
# [25] = target: GlcNAc(b1-3)Gal(b1-4)GlcNAc
# Summary of the method: as §1
# [26] = target: GlcNAc(b1-3)Gal(b1-4)GlcNAc(b1-2)Man(a1-3)[GlcNAc(b1-3)Gal(b1-4)GlcNAc(b1-2)Man(a1-6)]Man(b1-4)GlcNAc(b1-4)GlcNAc
# Summary of the method: as §1
# [27] = target: GlcNAc(b1-3)Gal(b1-4)GlcNAc(b1-2)Man(a1-3)[GlcNAc(b1-3)Gal(b1-4)GlcNAc(b1-2)Man(a1-6)]Man(b1-4)GlcNAc(b1-4)[Fuc(a1-6)]GlcNAc
# Summary of the method: as §1
# [28] = target: GlcNAc(b1-3)Gal(b1-4)GlcNAc(b1-2)[GlcNAc(b1-3)Gal(b1-4)GlcNAc(b1-6)]Man(a1-6)[GlcNAc(b1-3)Gal(b1-4)GlcNAc(b1-2)Man(a1-3)]Man(b1-4)GlcNAc(b1-4)GlcNAc
# Summary of the method: as §1
# [29] = target: GlcNAc(b1-3)Gal(b1-4)GlcNAc(b1-3)Gal(b1-4)GlcNAc
# Summary of the method: as §1
# [30] = target: GlcNAc(b1-3)Gal(b1-4)GlcNAc(b1-3)Gal(b1-4)GlcNAc(b1-2)Man(a1-3)[GlcNAc(b1-3)Gal(b1-4)GlcNAc(b1-3)Gal(b1-4)GlcNAc(b1-2)Man(a1-6)]Man(b1-4)GlcNAc(b1-4)GlcNAc
# Summary of the method: as §1
# [31] = target: GlcNAc(b1-3)Gal(b1-4)GlcNAc(b1-3)Gal(b1-4)GlcNAc(b1-2)Man(a1-3)[GlcNAc(b1-3)Gal(b1-4)GlcNAc(b1-3)Gal(b1-4)GlcNAc(b1-2)Man(a1-6)]Man(b1-4)GlcNAc(b1-4)[Fuc(a1-6)]GlcNAc
# Summary of the method: as §1
# [32] = target: GlcNAc(b1-3)Gal(b1-4)GlcNAc(b1-3)Gal(b1-4)GlcNAc(b1-2)[GlcNAc(b1-3)Gal(b1-4)GlcNAc(b1-3)Gal(b1-4)GlcNAc(b1-6)]Man(a1-6)[GlcNAc(b1-3)Gal(b1-4)GlcNAc(b1-3)Gal(b1-4)GlcNAc(b1-2)Man(a1-3)]Man(b1-4)GlcNAc(b1-4)[Fuc(a1-6)]GlcNAc
# Summary of the method: as §1
# [33] = target: GlcNAc(b1-3)Gal(b1-4)GlcNAc(b1-3)Gal(b1-4)GlcNAc(b1-3)Gal(b1-4)GlcNAc(b1-2)Man(a1-3)[GlcNAc(b1-3)Gal(b1-4)GlcNAc(b1-3)Gal(b1-4)GlcNAc(b1-3)Gal(b1-4)GlcNAc(b1-2)Man(a1-6)]Man(b1-4)GlcNAc(b1-4)GlcNAc
# Summary of the method: as §1
# [34] = target: GlcNAc(b1-3)Gal(b1-4)GlcNAc(b1-3)Gal(b1-4)GlcNAc(b1-3)Gal(b1-4)GlcNAc(b1-2)Man(a1-3)[GlcNAc(b1-3)Gal(b1-4)GlcNAc(b1-3)Gal(b1-4)GlcNAc(b1-3)Gal(b1-4)GlcNAc(b1-2)Man(a1-6)]Man(b1-4)GlcNAc(b1-4)[Fuc(a1-6)]GlcNAc
# Summary of the method: as §1
# [35] = target: GlcNAc(b1-3)Gal(b1-4)GlcNAc(b1-3)Gal(b1-4)GlcNAc(b1-3)Gal(b1-4)GlcNAc(b1-2)[GlcNAc(b1-3)Gal(b1-4)GlcNAc(b1-3)Gal(b1-4)GlcNAc(b1-3)Gal(b1-4)GlcNAc(b1-6)]Man(a1-6)[GlcNAc(b1-3)Gal(b1-4)GlcNAc(b1-3)Gal(b1-4)GlcNAc(b1-3)Gal(b1-4)GlcNAc(b1-2)Man(a1-3)]Man(b1-4)GlcNAc(b1-4)[Fuc(a1-6)]GlcNAc
# Summary of the method: as §1
# [36] = target: GlcNAc(b1-3)Gal(b1-4)GlcNAc(b1-3)Gal(b1-4)GlcNAc(b1-3)Gal(b1-4)GlcNAc(b1-3)Gal(b1-4)GlcNAc(b1-2)Man(a1-3)[GlcNAc(b1-3)Gal(b1-4)GlcNAc(b1-3)Gal(b1-4)GlcNAc(b1-3)Gal(b1-4)GlcNAc(b1-3)Gal(b1-4)GlcNAc(b1-2)Man(a1-6)]Man(b1-4)GlcNAc(b1-4)GlcNAc
# Summary of the method: as §1
# [37] = target: GlcNAc(b1-3)Gal(b1-4)GlcNAc(b1-3)Gal(b1-4)GlcNAc(b1-3)Gal(b1-4)GlcNAc(b1-3)Gal(b1-4)GlcNAc(b1-2)Man(a1-3)[GlcNAc(b1-3)Gal(b1-4)GlcNAc(b1-3)Gal(b1-4)GlcNAc(b1-3)Gal(b1-4)GlcNAc(b1-3)Gal(b1-4)GlcNAc(b1-2)Man(a1-6)]Man(b1-4)GlcNAc(b1-4)[Fuc(a1-6)]GlcNAc
# Summary of the method: as §1
# [38] = target: GlcNAc(b1-3)Gal(b1-4)GlcNAc(b1-3)Gal(b1-4)GlcNAc(b1-3)Gal(b1-4)GlcNAc(b1-3)Gal(b1-4)GlcNAc(b1-2)[GlcNAc(b1-3)Gal(b1-4)GlcNAc(b1-3)Gal(b1-4)GlcNAc(b1-3)Gal(b1-4)GlcNAc(b1-3)Gal(b1-4)GlcNAc(b1-6)]Man(a1-6)[GlcNAc(b1-3)Gal(b1-4)GlcNAc(b1-3)Gal(b1-4)GlcNAc(b1-3)Gal(b1-4)GlcNAc(b1-3)Gal(b1-4)GlcNAc(b1-2)Man(a1-3)]Man(b1-4)GlcNAc(b1-4)[Fuc(a1-6)]GlcNAc
# Summary of the method: as §1
binder,measurement,setting,value
B1,glycan array binding signal (z-score),Glc(b1-6)Glc,-0.364
same,glycan array binding signal (z-score),GlcA(b1-3)Gal,-0.351
same,glycan array binding signal (z-score),GlcA(b1-3)GlcNAc,-0.304
same,glycan array binding signal (z-score),GlcA(b1-6)Gal,5.98
same,glycan array binding signal (z-score),[1],-0.398
same,glycan array binding signal (z-score),[2],-0.369
same,glycan array binding signal (z-score),[3],-0.4
same,glycan array binding signal (z-score),[4],-0.418
same,glycan array binding signal (z-score),[5],-0.129
same,glycan array binding signal (z-score),[6],-0.374
same,glycan array binding signal (z-score),[7],-0.409
same,glycan array binding signal (z-score),[8],-0.413
same,glycan array binding signal (z-score),[9],-0.408
same,glycan array binding signal (z-score),[10],-0.399
same,glycan array binding signal (z-score),[11],2.37
same,glycan array binding signal (z-score),[12],-0.396
same,glycan array binding signal (z-score),[13],-0.378
same,glycan array binding signal (z-score),[14],-0.389
same,glycan array binding signal (z-score),[15],-0.416
same,glycan array binding signal (z-score),[16],-0.35
same,glycan array binding signal (z-score),[17],-0.368
same,glycan array binding signal (z-score),[18],-0.334
same,glycan array binding signal (z-score),[19],-0.401
same,glycan array binding signal (z-score),[20],-0.395
same,glycan array binding signal (z-score),[21],-0.415
same,glycan array binding signal (z-score),[22],-0.347
same,glycan array binding signal (z-score),[23],-0.417
same,glycan array binding signal (z-score),GlcNAc(b1-3)Fuc,-0.367
same,glycan array binding signal (z-score),GlcNAc(b1-3)Gal,-0.389
same,glycan array binding signal (z-score),[24],-0.285
same,glycan array binding signal (z-score),GlcNAc(b1-3)Gal(b1-4)Glc,-0.353
same,glycan array binding signal (z-score),[25],-0.312
same,glycan array binding signal (z-score),[26],-0.39
same,glycan array binding signal (z-score),[27],-0.347
same,glycan array binding signal (z-score),[28],-0.37
same,glycan array binding signal (z-score),[29],-0.331
same,glycan array binding signal (z-score),[30],0.106
same,glycan array binding signal (z-score),[31],-0.309
same,glycan array binding signal (z-score),[32],-0.317
same,glycan array binding signal (z-score),[33],-0.364
same,glycan array binding signal (z-score),[34],-0.26
same,glycan array binding signal (z-score),[35],-0.37
same,glycan array binding signal (z-score),[36],-0.344
same,glycan array binding signal (z-score),[37],-0.188
same,glycan array binding signal (z-score),[38],-0.378
